# Reference: the supplement of paper PMC8728848
# Some of the results follow.
# B1: Epa1-NP (Candida glabrata), Q6VBJ0 (protein)
# chain: MILNPALFLNKCVCIYTTLILLLLTNGGYATSSNDISLASKDPTTFPLGCSPDITTPKKGLSMELYSYDFRKKGSYPCWDAAYLDPNYPRTGYKSHRLLAKVDGVTGNINFYYHATKGCTPQLGHLPASYNYPKPLTMTNFTMLLYGYFRPKVTGFHTFTISADDLLFVNFGAGNAFDCCRRDSSADHFGNYQAYAIWGSKTAKDELTVHLDAGVYYPIRLFYNNREYDGALSFTFKTESNENTVSDFSEYFFSLDDTEEGCPGLISYDSSCASVKTSKIIGIDYHTETPNENLVPITKTIYHLGIPCTGTTTTPLCGSGFYDPLANKCVTINTSSTSSVTKTTSHTTSKEVSFHSSISSQKTLIPKSIPSPYGPIKSQSIPTEMETSSEISSSEYAFSDVISTPSHSPYTKKHSSLNSSSYTSTVIHSLTSYSISQGIFSTSLSEQNITSKSSTDKFSTATSMSNNITQSSIIISQFSTNNENYTTTSMHTSSDKISTETLNNSISTTTSILFSNSSTILKNNTTIISSDKDTHYHPVNPTIVCSTNKTEIICASITQPSISNSNNHWSSSVLKFNSTTVRSTLPSSAGSNETSINVPFSSSTESNTSTSSTSTSNSKMVRSTLPSSAGSNETSISVPFSSSTESNTSTSSTSTSNSKMVRSTLPSSAGSNETSINVPFSSSTESNTSTSSTSTSNSKTVRSTPFSSAGIIMTSLSQRNNKSASSYASSNSKCYNTADSCRKVHSTPSYLLTSSYTSEGVDYDCSLVSTKLKINDTNCVNNKHTTKSCLKTSVTTTIPTLEIKTARKSSSNTIGLHSYPTSSPNKSISSAPIIGYISSFKTIKTASPSYQTSDLTTITTITSLNNPGSTAVENTHESNDKSRKTSSNDISSKHSVIKETKDAVESSNKSHQTNTLKCSSIIIASSSHNSYESLGGTTLTLTLSKVYSPQNNDTLPFLEISEVNPSRTVLPESSKMMQYLTSTEERNKTARNTIATNIVSISTFHFEGEGNAIRMGYTQLLLMLIGIIVMNIGT
# Experiments:
# Experiment in all cases: glycan array binding signal (z-score within array); higher = stronger binding
# Conditions in all cases: glycan notation: IUPAC condensed, linker removed
# [1] = target: Neu5Ac(a2-6)Gal(b1-4)GlcNAc(b1-3)Gal(b1-4)GlcNAc(b1-2)Man(a1-3)[Neu5Ac(a2-6)Gal(b1-4)GlcNAc(b1-3)Gal(b1-4)GlcNAc(b1-2)Man(a1-6)]GalNAc
# Procedure, shortened: (§1)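 Columns mapping to the same glycan were averaged after glycan names were converted to IUPAC-condensed notation. The data come from 3228 arrays in the Consortium for Functional Glycomics database, limited to those with an available protein sequence. Binding is reported as a within-array Z-score averaged across arrays of one protein sequence and across linkers.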
# [2] = target: Neu5Ac(a2-6)Gal(b1-4)GlcNAc(b1-3)Gal(b1-4)GlcNAc(b1-3)Gal(b1-4)GlcNAc
# Procedure, shortened: as §1
# [3] = target: Neu5Ac(a2-6)Gal(b1-4)GlcNAc(b1-3)Gal(b1-4)GlcNAc(b1-3)Gal(b1-4)GlcNAc(b1-2)Man(a1-3)[Neu5Ac(a2-6)Gal(b1-4)GlcNAc(b1-3)Gal(b1-4)GlcNAc(b1-3)Gal(b1-4)GlcNAc(b1-2)Man(a1-6)]GalNAc
# Procedure, shortened: as §1
# [4] = target: Neu5Ac(a2-6)Gal(b1-4)GlcNAc(b1-3)Gal(b1-4)GlcNAc(b1-3)GalNAc
# Procedure, shortened: as §1
# [5] = target: Neu5Ac(a2-6)Gal(b1-4)GlcNAc(b1-3)Gal(b1-4)GlcNAc(b1-3)[Neu5Ac(a2-6)Gal(b1-4)GlcNAc(b1-3)Gal(b1-4)GlcNAc(b1-6)]GalNAc
# Procedure, shortened: as §1
# [6] = target: Neu5Ac(a2-6)Gal(b1-4)GlcNAc(b1-3)Gal(b1-4)GlcNAc(b1-6)[Gal(b1-3)]GalNAc
# Procedure, shortened: as §1
# [7] = target: Neu5Ac(a2-6)Gal(b1-4)GlcNAc(b1-3)Gal(b1-4)[Fuc(a1-3)]GlcNAc(b1-3)Gal(b1-4)[Fuc(a1-3)]GlcNAc
# Procedure, shortened: as §1
# [8] = target: Neu5Ac(a2-6)Gal(b1-4)GlcNAc(b1-3)GalNAc
# Procedure, shortened: as §1
# [9] = target: Neu5Ac(a2-6)Gal(b1-4)GlcNAc(b1-3)[Neu5Ac(a2-6)Gal(b1-4)GlcNAc(b1-6)]GalNAc
# Procedure, shortened: as §1
# [10] = target: Neu5Ac(a2-6)Gal(b1-4)GlcNAc(b1-6)GalNAc
# Procedure, shortened: as §1
# [11] = target: Neu5Ac(a2-6)Gal(b1-4)GlcNAc(b1-6)[Gal(b1-3)GlcNAc(b1-3)]Gal(b1-4)Glc
# Procedure, shortened: as §1
# [12] = target: Neu5Ac(a2-6)Gal(b1-4)GlcNAc(b1-6)[Gal(b1-3)]GalNAc
# Procedure, shortened: as §1
# [13] = target: Neu5Ac(a2-6)Gal(b1-4)GlcNAc6S
# Procedure, shortened: as §1
# Neu5Ac(a2-6)GalNAc = target: Neu5Ac(a2-6)GalNAc
# Procedure, shortened: as §1
# [14] = target: Neu5Ac(a2-6)GalNAc(b1-4)GlcNAc
# Procedure, shortened: as §1
# [15] = target: Neu5Ac(a2-6)GalNAc(b1-4)GlcNAc6S
# Procedure, shortened: as §1
# [16] = target: Neu5Ac(a2-6)GlcNAc(b1-4)GlcNAc
# Procedure, shortened: as §1
# [17] = target: Neu5Ac(a2-6)GlcNAc(b1-4)GlcNAc(b1-4)GlcNAc
# Procedure, shortened: as §1
# Neu5Ac(a2-8)Neu5Ac = target: Neu5Ac(a2-8)Neu5Ac
# Procedure, shortened: as §1
# [18] = target: Neu5Ac(a2-8)Neu5Ac(a2-3)Gal(b1-3)GalNAc(b1-4)[Neu5Ac(a2-3)]Gal(b1-4)Glc
# Procedure, shortened: as §1
# [19] = target: Neu5Ac(a2-8)Neu5Ac(a2-3)Gal(b1-3)GalNAc(b1-4)[Neu5Ac(a2-8)Neu5Ac(a2-3)]Gal(b1-4)Glc
# Procedure, shortened: as §1
# [20] = target: Neu5Ac(a2-8)Neu5Ac(a2-3)Gal(b1-4)Glc
# Procedure, shortened: as §1
# [21] = target: Neu5Ac(a2-8)Neu5Ac(a2-3)Gal(b1-4)GlcNAc
# Procedure, shortened: as §1
# [22] = target: Neu5Ac(a2-8)Neu5Ac(a2-3)[Gal(b1-3)GalNAc(b1-4)]Gal(b1-4)Glc
# Procedure, shortened: as §1
# [23] = target: Neu5Ac(a2-8)Neu5Ac(a2-3)[GalNAc(b1-4)]Gal(b1-4)Glc
# Procedure, shortened: as §1
# [24] = target: Neu5Ac(a2-8)Neu5Ac(a2-8)Neu5Ac
# Procedure, shortened: as §1
# [25] = target: Neu5Ac(a2-8)Neu5Ac(a2-8)Neu5Ac(a2-3)Gal(b1-4)Glc
# Procedure, shortened: as §1
# [26] = target: Neu5Ac(a2-8)Neu5Ac(a2-8)Neu5Ac(a2-3)[Gal(b1-3)GalNAc(b1-4)]Gal(b1-4)Glc
# Procedure, shortened: as §1
# [27] = target: Neu5Ac(a2-8)Neu5Ac(a2-8)Neu5Ac(a2-3)[GalNAc(b1-4)]Gal(b1-4)Glc
# Procedure, shortened: as §1
# [28] = target: Neu5Ac(a2-8)Neu5Ac(a2-8)Neu5Ac(a2-8)Neu5Ac(a2-3)[GalNAc(b1-4)]Gal(b1-4)Glc
# Procedure, shortened: as §1
# [29] = target: Neu5Ac(a2-8)Neu5Gc(a2-3)Gal(b1-4)GlcNAc
# Procedure, shortened: as §1
# [30] = target: Neu5Ac(b2-6)Gal(b1-4)GlcNAc
# Procedure, shortened: as §1
# Neu5Ac(b2-6)GalNAc = target: Neu5Ac(b2-6)GalNAc
# Procedure, shortened: as §1
# [31] = target: Neu5Ac9Ac(a2-3)Gal(b1-3)GlcNAc
# Procedure, shortened: as §1
# [32] = target: Neu5Ac9Ac(a2-3)Gal(b1-4)GlcNAc
# Procedure, shortened: as §1
# [33] = target: Neu5Ac9Ac(a2-6)Gal(b1-4)GlcNAc
# Procedure, shortened: as §1
# [34] = target: Neu5Gc(a2-3)Gal(b1-3)GlcNAc
# Procedure, shortened: as §1
# [35] = target: Neu5Gc(a2-3)Gal(b1-3)[Fuc(a1-4)]GlcNAc
# Procedure, shortened: as §1
# Neu5Gc(a2-3)Gal(b1-4)Glc = target: Neu5Gc(a2-3)Gal(b1-4)Glc
# Procedure, shortened: as §1
# [36] = target: Neu5Gc(a2-3)Gal(b1-4)GlcNAc
# Procedure, shortened: as §1
# [37] = target: Neu5Gc(a2-3)Gal(b1-4)GlcNAc(b1-3)Gal(b1-4)GlcNAc(b1-2)Man(a1-3)[Neu5Gc(a2-3)Gal(b1-4)GlcNAc(b1-3)Gal(b1-4)GlcNAc(b1-2)Man(a1-6)]Man(b1-4)GlcNAc(b1-4)GlcNAc
# Procedure, shortened: as §1
# [38] = target: Neu5Gc(a2-3)Gal(b1-4)[Fuc(a1-3)]GlcNAc
# Procedure, shortened: as §1
# [39] = target: Neu5Gc(a2-3)Gal(b1-4)[Fuc(a1-4)]GlcNAc
# Procedure, shortened: as §1
# [40] = target: Neu5Gc(a2-6)Gal(b1-4)GlcNAc
# Procedure, shortened: as §1
# Neu5Gc(a2-6)GalNAc = target: Neu5Gc(a2-6)GalNAc
# Procedure, shortened: as §1
# [41] = target: Neu5Gc(a2-8)Neu5Ac(a2-3)Gal(b1-4)GlcNAc
# Procedure, shortened: as §1
# [42] = target: Neu5Gc(a2-8)Neu5Gc(a2-3)Gal(b1-4)GlcNAc
# Procedure, shortened: as §1
# [43] = target: Neu5Gc(a2-8)Neu5Gc(a2-3)Gal(b1-4)GlcNAc(b1-3)Gal(b1-4)GlcNAc
# Procedure, shortened: as §1
# [44] = target: Neu5Gc(a2-8)Neu5Gc(a2-6)Gal(b1-4)GlcNAc
# Procedure, shortened: as §1
# [45] = target: Neu5Gc(b2-6)Gal(b1-4)GlcNAc
# Procedure, shortened: as §1
binder,measurement,setting,value
B1,glycan array binding signal (z-score),[1],-0.171
same,glycan array binding signal (z-score),[2],-0.285
same,glycan array binding signal (z-score),[3],-0.273
same,glycan array binding signal (z-score),[4],-0.285
same,glycan array binding signal (z-score),[5],-0.279
same,glycan array binding signal (z-score),[6],0.913
same,glycan array binding signal (z-score),[7],-0.313
same,glycan array binding signal (z-score),[8],-0.166
same,glycan array binding signal (z-score),[9],-0.274
same,glycan array binding signal (z-score),[10],-0.284
same,glycan array binding signal (z-score),[11],-0.24
same,glycan array binding signal (z-score),[12],1.03
same,glycan array binding signal (z-score),[13],-0.31
same,glycan array binding signal (z-score),Neu5Ac(a2-6)GalNAc,-0.306
same,glycan array binding signal (z-score),[14],-0.342
same,glycan array binding signal (z-score),[15],-0.288
same,glycan array binding signal (z-score),[16],-0.281
same,glycan array binding signal (z-score),[17],-0.282
same,glycan array binding signal (z-score),Neu5Ac(a2-8)Neu5Ac,-0.295
same,glycan array binding signal (z-score),[18],-0.282
same,glycan array binding signal (z-score),[19],0.029
same,glycan array binding signal (z-score),[20],-0.42
same,glycan array binding signal (z-score),[21],-0.29
same,glycan array binding signal (z-score),[22],0.862
same,glycan array binding signal (z-score),[23],-0.333
same,glycan array binding signal (z-score),[24],-0.321
same,glycan array binding signal (z-score),[25],-0.328
same,glycan array binding signal (z-score),[26],-0.27
same,glycan array binding signal (z-score),[27],-0.344
same,glycan array binding signal (z-score),[28],-0.324
same,glycan array binding signal (z-score),[29],-0.293
same,glycan array binding signal (z-score),[30],-0.275
same,glycan array binding signal (z-score),Neu5Ac(b2-6)GalNAc,-0.287
same,glycan array binding signal (z-score),[31],-0.281
same,glycan array binding signal (z-score),[32],-0.307
same,glycan array binding signal (z-score),[33],-0.309
same,glycan array binding signal (z-score),[34],-0.348
same,glycan array binding signal (z-score),[35],-0.321
same,glycan array binding signal (z-score),Neu5Gc(a2-3)Gal(b1-4)Glc,-0.308
same,glycan array binding signal (z-score),[36],-0.317
same,glycan array binding signal (z-score),[37],-0.287
same,glycan array binding signal (z-score),[38],-0.262
same,glycan array binding signal (z-score),[39],-0.553
same,glycan array binding signal (z-score),[40],-0.326
same,glycan array binding signal (z-score),Neu5Gc(a2-6)GalNAc,-0.328
same,glycan array binding signal (z-score),[41],-0.286
same,glycan array binding signal (z-score),[42],-0.286
same,glycan array binding signal (z-score),[43],-0.289
same,glycan array binding signal (z-score),[44],-0.286
same,glycan array binding signal (z-score),[45],-0.255
